Results as given in PubChem BioAssay (NCATS).
The inconclusive results got no clear call from the source; some entries with a clear call stand among them for comparison. No potency is given beside an inconclusive call; the fits are too rough. The source made the active and inactive calls. The call rests on the fitted dose curve; in most records, active means well fitted cell-killing curve with a large enough effect; inconclusive means small, poorly fitted or top-dose-only effect; inactive means no such curve, though single readings can be large or run the other way.
Potency means the concentration at half of the fitted maximal effect; tags describe the fitted curve by direction and shape.

Assay: qHTS of pediatric cancer cell lines to identify multiple opportunities for drug repurposing: Primary screen for Saos-2 cells (AID 1347097); further: nearly all actives have a fitted effect of over 40% in size
Conditions: Saos-2 viability, CellTiter-Glo ATP luminescence, 48 h; series mostly up to 46 µM
Procedure, shortened: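 Primary screen of approved and investigational compounds on cells in growth media at 37 degrees C, 5% CO2. MIPE set at 11-point and NPC set at 8-point dilutions; viability scored by ATP-based luminescence at 48 hours.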
With Cc1ccc(C(N)=O)cc1Nc1nccc(-c2cn(C(C)C)c3cnccc23)n1 the Potency was active: 4.69 µM. For CCOc1ccc(NC(C)=O)cc1, the Potency was “inactive”. With COc1cc(C=CC(=O)CC(=O)C=Cc2ccc(O)c(OC)c2)ccc1O the Potency was active: 30.3 µM. In the case of CNC(=O)c1ccccc1Nc1nc(Nc2ccc(N3CCOCC3)cc2OC)ncc1Cl, the Potency is reported as active: 1.18 µM. For Cc1cc(NC(=O)Nc2ccc(N(C)C)cc2)c2cc(F)cc(F)c2n1, the Potency was inconclusive [cytotoxic, partial curve]. For O=C1OC2(c3ccccc31)c1cc(Br)c(O)c(Br)c1Oc1c2cc(Br)c(O)c1Br, the Potency was inconclusive [cytotoxic, partial curve]. With CC1=C(C/C=C(\C)CCC[C@H](C)CCC[C@H](C)CCCC(C)C)C(=O)c2ccccc2C1=O the Potency was “inactive”. With CC1C(=O)OC2C(O)C34C5CC(C(C)(C)C)C36C(OC(=O)C6O)OC4(C(=O)O5)C12O (stereo not given) the Potency was “inactive”. In the case of CCC[C@H](Nc1nc(-c2ccc(NC(=O)NCC)c(OC)c2)ncc1C)c1cccnc1, the Potency is reported as inconclusive [cytotoxic, full curve]. With CC(CN1c2ccccc2Sc2ccccc21)N(C)C (stereo not given) the Potency was inconclusive [cytotoxic, single point]. In the case of COc1cc2ncnc(Nc3cccc(Br)c3)c2cc1OC, the Potency is reported as active: 29.6 µM. For CCN1CCN(Cc2ccc(-c3cc4c(N[C@H](C)c5ccccc5)ncnc4[nH]3)cc2)CC1, the Potency was active: 0.209 µM. With CN1CCc2c(n(Cc3ccc(C(=O)NO)cc3)c3ccccc23)C1 the Potency was “inactive”. With COCC(=O)O[C@]1(CCN(C)CCCc2nc3ccccc3[nH]2)CCc2cc(F)ccc2[C@@H]1C(C)C the Potency was active: 26.6 µM. With CN(C)CC/C=C1\c2ccccc2Sc2ccc(Cl)cc21 the Potency was inconclusive [cytotoxic, single point]. With Nc1ncnc2c1ncn2[C@@H]1O[C@H](CO)[C@@H](O)[C@@H]1O the Potency was active: 2.96 µM. For CCC(C=C[C@@H]1OC(=O)C=C[C@H]1C)=C[C@H](C)CC=CC(C)=C[C@@H](C)C(=O)[C@@H](C)[C@H](O)[C@@H](C)CC(C)=CC(=O)O, the Potency was inconclusive [cytotoxic, full curve, poor fit]. With NC(N)=NN=C(/C=C/c1ccc([N+](=O)[O-])o1)/C=C/c1ccc([N+](=O)[O-])o1 the Potency was inconclusive [cytotoxic, single point]. With O=C(O)c1ccc(Nc2ncc3c(n2)-c2ccc(Cl)cc2C(c2c(F)cccc2F)=NC3)cc1 the Potency was inconclusive [cytotoxic, full curve]. In the case of CC(=O)Nc1cccc(O)c1, the Potency is reported as inconclusive [cytotoxic, single point]. With C[C@@H](N)C1CCC(C(=O)Nc2ccncc2)CC1 (stereo not given in full) the Potency was inconclusive [cytotoxic, partial curve]. In the case of CN1CCN(CCCN2c3ccccc3Sc3ccc(S(=O)(=O)N(C)C)cc32)CC1, the Potency is reported as inconclusive [cytotoxic, partial curve]. For CN1C(C(=O)Nc2ccccn2)=C(O)c2sc(Cl)cc2S1(=O)=O, the Potency was inconclusive [cytotoxic, partial curve]. In the case of NC(=O)Nc1cc(-c2ccc(CN3CCOCC3)cc2)sc1C(N)=O, the Potency is reported as active: 2.35 µM. In the case of Nc1cccc2c1C(=O)N(C1CCC(=O)NC1=O)C2=O (stereo not given), the Potency is reported as inconclusive [cytotoxic, partial curve, poor fit]. With Oc1c(I)cc(I)c2cccnc12 the Potency was inconclusive [cytotoxic, single point]. With Clc1ccc(Nc2nnc(Cc3ccncc3)c3ccccc23)cc1 the Potency was inconclusive [cytotoxic, partial curve]. For CN(C)CCOc1ccc(C(=C(CCCl)c2ccccc2)c2ccccc2)cc1, the Potency was inconclusive [cytotoxic, partial curve]. With COc1cc(N2CCC(C(N)=O)CC2)ccc1Nc1nc(N)c(Cl)c(Nc2ccccc2S(=O)(=O)C(C)C)n1 the Potency was inconclusive [cytotoxic, full curve]. For CCOC(=O)N1CCN([N+]([O-])=NOc2ccc([N+](=O)[O-])cc2C#N)CC1, the Potency was inconclusive [cytotoxic, partial curve]. With NC(=O)c1noc([C@H](CCCC2CCCCC2)CC(=O)NO)n1 the Potency was inconclusive [cytotoxic, partial curve]. For CCCCCN=C(N)N/N=C/c1c[nH]c2ccc(OC)cc12, the Potency was inconclusive [cytotoxic, single point]. For C[C@H](NC(=O)C(C#N)=Cc1cccc(Br)n1)c1ccccc1, the Potency was inconclusive [cytotoxic, single point]. In the case of CC1=C(CC(=O)O)c2cc(F)ccc2C1=Cc1ccc(S(C)=O)cc1 (stereo not given), the Potency is reported as inconclusive [cytotoxic, single point]. For CC1(C)O[C@@H]2C[C@H]3[C@@H]4CCC5=CC(=O)CC[C@]5(C)[C@@]4(F)[C@@H](O)C[C@]3(C)[C@]2(C(=O)CCl)O1, the Potency was “inactive”. With C#Cc1cccc(Nc2ncnc3cc(OCCOC)c(OCCO)cc23)c1 the Potency was active: 5.9 µM. For COc1cc2nc(-c3cc(F)ccc3O)nc(N[C@@H]3CNC[C@@H]3C(C)(C)O)c2cc1OC, the Potency was active: 9.35 µM. In the case of COc1cc(Cl)cn2c(-c3cccc(NC4CNC4)n3)cnc12, the Potency is reported as inconclusive [cytotoxic, partial curve]. With COc1cc2ncnc(Nc3cccc(Cl)c3)c2cc1OC the Potency was inconclusive [cytotoxic, single point]. With CC(CN(C)C)CN1c2ccccc2CCc2ccccc21 (stereo not given) the Potency was inconclusive [cytotoxic, partial curve].
